The values below come from publication PMC3517537.

The chains behind the UniProt entries cited, without tags or fusion partners. Where a name states a change or a piece, a line headed by the entry shows the natural chain unless it says otherwise.
UniProt Q15691: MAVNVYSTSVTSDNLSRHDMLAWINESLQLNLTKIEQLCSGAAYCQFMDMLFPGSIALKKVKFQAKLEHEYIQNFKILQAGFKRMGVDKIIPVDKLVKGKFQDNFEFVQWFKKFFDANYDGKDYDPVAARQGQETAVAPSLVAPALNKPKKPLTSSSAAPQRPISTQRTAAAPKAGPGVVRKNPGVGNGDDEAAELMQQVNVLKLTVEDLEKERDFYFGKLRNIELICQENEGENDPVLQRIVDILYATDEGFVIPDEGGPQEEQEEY

In assay [1] the target is T1, HA-tagged hGTSE1 (pcDNA3-HA-hGTSE1) (human) (UniProt Q9NYZ3).
T1 sequence: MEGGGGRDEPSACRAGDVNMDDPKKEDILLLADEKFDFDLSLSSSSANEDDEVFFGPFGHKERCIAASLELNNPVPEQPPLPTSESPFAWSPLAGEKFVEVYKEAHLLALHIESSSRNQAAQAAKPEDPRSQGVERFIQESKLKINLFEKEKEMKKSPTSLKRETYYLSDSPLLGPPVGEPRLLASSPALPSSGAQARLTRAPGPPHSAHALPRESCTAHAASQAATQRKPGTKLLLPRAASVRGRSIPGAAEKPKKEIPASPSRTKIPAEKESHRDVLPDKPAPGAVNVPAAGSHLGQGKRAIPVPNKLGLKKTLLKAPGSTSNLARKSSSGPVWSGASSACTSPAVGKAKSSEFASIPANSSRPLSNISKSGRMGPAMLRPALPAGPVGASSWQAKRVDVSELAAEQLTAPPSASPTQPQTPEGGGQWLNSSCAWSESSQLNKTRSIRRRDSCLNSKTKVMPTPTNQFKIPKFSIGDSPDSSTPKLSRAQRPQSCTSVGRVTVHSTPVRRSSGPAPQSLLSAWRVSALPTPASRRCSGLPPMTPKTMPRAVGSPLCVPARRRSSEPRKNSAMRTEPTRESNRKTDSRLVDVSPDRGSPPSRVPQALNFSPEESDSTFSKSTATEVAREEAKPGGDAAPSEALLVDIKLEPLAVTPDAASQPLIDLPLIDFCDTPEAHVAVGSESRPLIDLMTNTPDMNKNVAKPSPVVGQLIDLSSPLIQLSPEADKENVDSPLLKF
The assay can be described thus: co-IP; HEK293T cells transfected with HA-tagged hGTSE1 and GFP-tagged EB1 or its deletion mutants for 24 h; immunoprecipitation with anti-HA antibody, blot with anti-GFP and anti-HA.

The target of assay [2] is T2, GTSE1 (G-2 and S-phase expressed 1), endogenous (human (endogenous in U2OS)) (UniProt Q9NYZ3).
T2 sequence: T1 sequence
The assay can be described thus: co-IP; U2OS cell lysate (50 mM Tris-HCl pH 8, 150 mM NaCl, 1% Nonidet P-40), anti-GTSE1 antibody prebound to Protein A-Sepharose, 4°C 2 h, anti-GFP as control antibody; Western blot with anti-EB1. For orientation: In western blotting, separated proteins are transferred to a membrane and probed.

Assay [3] deals with T3, GST-hGTSE1 (full-length hGTSE1 fused to GST, pGEX-4T1) (human) (UniProt Q9NYZ3).
T3 sequence: T1 sequence
The assay can be described thus: pull-down; purified GST, GST-hGTSE1 or GST-EB1 immobilised on glutathione-Sepharose 4B beads, incubated with 35S-labeled in vitro translated proteins in 150 mM NaCl, 20 mM Hepes pH 7.5, 0.05% NP-40, 10% glycerol; autoradiography; only the target purified.

These are yes or no findings as the source states them, for the method shown. Binding seen in cells or lysates may run through a third protein. Some binding calls cover weakened binding; strength is not graded here. For some assays here: Sequences can lack the tags named with a protein.

On to “C-terminal EB1-GFP fragment containing the EBH domain (residues 143-268) (from UniProt Q15691 143-268) (domain or fragment)”, for which, in assay [1], the binding entry was “binds”. On to “EB1, endogenous (from UniProt Q15691 1-268)”, for which, in assay [2], the binding entry is listed as “binds”.

Turning to “N-terminal EB1-GFP fragment (residues 1-143) (from UniProt Q15691 1-143) (domain or fragment)”, the binding result in assay [1] is “no binding”. The same measure, in the same setting: for “full length EB1-GFP (pEGFP N1-EB1) (from UniProt Q15691 1-268)” the value was “binds”.

Take “in vitro translated 35S-labeled EB1 (from UniProt Q15691 1-268)”: the binding entry in assay [3] was “binds”.
